Test results from PubChem BioAssay AID588591 (National Center for Advancing Translational Sciences (NCATS), 2011).
Among all 390,000 compounds or so, about 4,700 (1.2%) were called active. This list was built around the results that the source calls inconclusive (neither active nor inactive); the mix of calls is not that of the screen. Calls follow the shape of the dose curve; as a rule, active = well fitted inhibition curve with a large enough effect; inconclusive = small, poorly fitted or top-dose-only effect, or another doubt; inactive = no such curve, though single readings can be large or run the other way. Potencies of inconclusive entries are doubtful fits and often do not repeat.

Each compound was assayed against DNA polymerase eta (Homo sapiens) (UniProt Q9Y253) (assay: qHTS for Inhibitors of Polymerase Eta). Conditions: recombinant Pol eta, fluorescent DNA replication assay; series mostly up to 114 µM; activity change, negative = inhibition: at the top concentration.
How it was run: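 Pol eta (10 nM) was preincubated with compounds for 15 min at room temperature, after which fluorescent replication substrate (50 nM final) was added to start the reaction. Fluorescence was read kinetically at 0 and 10 min.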
% is scaled to controls: 0 for no effect and ±100 for the full control effect; potency is read from the fitted curve at half-maximal effect; tags tell the direction and shape of the fitted curve.

Chain of UniProt Q9Y253 (Q9Y253 whole entry, looked up): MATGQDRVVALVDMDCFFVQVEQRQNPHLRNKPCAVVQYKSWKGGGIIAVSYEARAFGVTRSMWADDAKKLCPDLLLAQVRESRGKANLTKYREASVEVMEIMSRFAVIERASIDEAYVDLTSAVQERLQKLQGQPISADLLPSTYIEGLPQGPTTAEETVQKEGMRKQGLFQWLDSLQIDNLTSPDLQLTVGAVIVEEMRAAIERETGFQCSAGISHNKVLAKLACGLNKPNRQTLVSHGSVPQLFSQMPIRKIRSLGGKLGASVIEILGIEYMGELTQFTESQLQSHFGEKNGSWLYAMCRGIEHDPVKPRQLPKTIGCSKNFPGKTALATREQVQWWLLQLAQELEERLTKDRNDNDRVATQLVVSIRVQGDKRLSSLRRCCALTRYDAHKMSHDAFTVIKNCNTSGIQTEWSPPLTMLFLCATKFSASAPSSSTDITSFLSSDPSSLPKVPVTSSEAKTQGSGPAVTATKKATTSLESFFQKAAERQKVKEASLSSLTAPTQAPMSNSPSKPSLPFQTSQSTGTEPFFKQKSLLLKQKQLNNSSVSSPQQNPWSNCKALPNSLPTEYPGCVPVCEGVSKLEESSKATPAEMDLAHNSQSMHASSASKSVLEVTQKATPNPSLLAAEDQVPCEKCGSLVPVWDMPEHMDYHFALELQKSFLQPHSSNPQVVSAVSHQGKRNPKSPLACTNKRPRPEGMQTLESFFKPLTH

Row | Structure (SMILES) | Potency | activity change, negative = inhibition
1 | O=C1C=C(O)CC(c2ccc(Cl)cc2)C1 (configuration not stated) | inconclusive: 25.1 µM [inhibitor, single point] | 
2 | O=C(OCC12CC3CC(CC(C3)C1)C2)c1ccc(NCc2cc(O)ccc2O)cc1 | inconclusive: 28.2 µM [inhibitor, partial curve] | 
3 | CCCCN(CCCNC(=O)CN1N=C(c2ccc(C)cc2)CCC1=O)c1ccccc1 | inconclusive: 44.7 µM [inhibitor, partial curve, poor fit] | 
4 | Cc1ccc(NC2=C/C(=N/S(=O)(=O)c3cccs3)c3ccccc3C2=O)cc1 | inconclusive: 20 µM [inhibitor, partial curve, poor fit] | 
5 | COc1ccc(C(=O)Nc2ccc(Br)cc2F)cc1S(=O)(=O)N1CCCC1 | inconclusive: 3.98 µM [inhibitor, partial curve, poor fit] | 
6 | Cc1cccc(Cn2c(Sc3nc(C)cs3)nc3c2c(=O)[nH]c(=O)n3C)c1 | inconclusive: 35.5 µM [inhibitor, partial curve, poor fit] | 
7 | COc1cc(Cl)cc(C2NC(=O)NC(C)=C2C(C)=O)c1OCC(=O)O (configuration not stated) | active: 25.1 µM | 
8 | COc1ccc(C(=O)Oc2ccc(/C=N/Nc3ccc(Cl)c(C(=O)O)c3)cc2OC)cc1 | active: 79.4 µM | 
9 | COc1cc(OC)c(-c2nn3c(-c4ccco4)nnc3s2)cc1OC | inconclusive: 7.08 µM [inhibitor, partial curve, poor fit] | 
10 | COc1ccc(Nc2nc(-c3cccs3)nc3ccccc23)c(OC)c1 | inconclusive: 50.1 µM [inhibitor, partial curve, poor fit] | 
11 | O=C(NCc1ccc2c(c1)OCO2)c1nc(Cn2cc(Br)cn2)no1 |  | inactive: -13.3%
12 | Cc1ccc(-c2nnn(CC(=O)N(Cc3cccs3)C(C(=O)NC(C)(C)C)c3ccco3)n2)o1 (configuration not stated) |  | inactive: -2.79%
13 | C=CCNC(=O)c1oc2ccc(S(=O)(=O)N(CC)CC)cc2c1C | inconclusive: 89.1 µM [inhibitor, single point] | 
14 | CCCCc1ccc(NC(=O)CC(C)(C)C)cc1 | inconclusive: 89.1 µM [inhibitor, partial curve, poor fit] | 
15 | c1ccc2c(c1)OCC(c1nnc3sc(-c4cnccn4)nn13)O2 (configuration not stated) | active: 89.1 µM | 
16 | COc1cccc(-c2cc3nc4c(c(NCC(C)(C)CN(C)C)n3n2)CCCC4)c1 | inconclusive: 56.2 µM [inhibitor, partial curve, poor fit] | 
17 | Cc1[nH]n(-c2ccccc2)c(=O)c1N=Nc1ccc2c(c1)OCCO2 |  | inactive: 0.882%
18 | CC(=O)OCC1OC(n2c3c(cc(C#N)c2=S)CCCC3)C(OC(C)=O)C(OC(C)=O)C1OC(C)=O (configuration not stated) | inconclusive: 28.2 µM [inhibitor, partial curve, poor fit] | 
19 | COc1cc(/C=C2\SC(=S)N(NC(=O)c3ccncc3)C2=O)ccc1O | inconclusive: 79.4 µM [inhibitor, partial curve] | 
20 | O=C(N/N=C/C=C/c1ccco1)c1ccncc1 |  | inactive: -2.44%
21 | COc1ccc(N2CC(C(=O)N/N=C/c3cc([N+](=O)[O-])ccc3O)CC2=O)cc1 (configuration not stated) |  | inactive: -16.6%
22 | Cn1c(=O)c2c(nc(NCCOc3ccc(C(C)(C)C)cc3)n2C)n(C)c1=O | inconclusive: 89.1 µM [inhibitor, partial curve, poor fit] | 
23 | Cc1ccc(NC(=O)c2cc(-c3cc(Cl)ccc3O)n[nH]2)cc1C | inconclusive: 35.5 µM [inhibitor, partial curve, poor fit] | 

Row | Structure (SMILES) | Potency | activity change, negative = inhibition
24 | COc1ccc(Cl)cc1NC(=O)CN1C(=O)C(C)(C)c2cc(S(=O)(=O)N3CCCCC3)ccc21 |  | inactive: -17.9%
25 | Cc1ccc(C(NC(=O)C(C)C)c2cc([N+](=O)[O-])c3cccnc3c2O)cc1 (configuration not stated) | inconclusive: 20 µM [inhibitor, full curve, poor fit] | 
26 | Cc1cccc(NC(=O)CN2C(=O)N/C(=C\c3ccccc3OCc3ccc(C(=O)O)cc3)C2=O)c1 | inconclusive: 79.4 µM [inhibitor, partial curve] | 
27 | CN1CCN(C(=O)CCC(=O)O)CC1 | inconclusive: 89.1 µM [inhibitor, partial curve, poor fit] | 
28 | Cc1ccc(CN(C(=O)C(F)(F)F)C(C(=O)NC2CCCCC2)c2ccco2)cc1 (configuration not stated) | inconclusive: 39.8 µM [inhibitor, single point] | 
29 | O=C(N/N=C/c1ccc(O)cc1)c1cc(-c2ccc3c(c2)OCO3)n[nH]1 | inconclusive: 31.6 µM [inhibitor, partial curve, poor fit] | 
30 | CCOC(=O)/C(N=Nc1cc(C(=O)O)cc(C(=O)O)c1)=C(\O)CCl | inconclusive: 31.6 µM [inhibitor, single point] | 
31 | C/C(N)=C(/C#N)C(=O)CSc1nnc(NC(C)C)s1 | active: 28.2 µM | 
32 | Cc1cc(-c2ccccc2)[nH]c(=O)c1C#N |  | inactive: -15%
33 | CCOC(=O)C1=C(CSc2nc3c(cc2C#N)CN(C)CC3)OC(N)=C(C#N)C1c1ccc(F)cc1 (configuration not stated) | inconclusive: 25.1 µM [inhibitor, single point] | 
34 | O=C(NCc1ccccc1)c1ccc2c(=O)[nH]c3c(C(=O)NCC4CCCO4)sc(=S)n3c2c1 (configuration not stated) | inconclusive: 20 µM [inhibitor, full curve, poor fit] | 
35 | CCOc1cc(/C=C2\C(=O)N(CCC#N)N=C2C)ccc1OCC(N)=O |  | inactive: -17.2%
36 | O=C(O)c1cccc(COc2ccc3c(c2)CCC3)c1 | active: 39.8 µM | 
37 | Cc1ccc(Nc2nc3ccccc3c3nnc(C)n23)c(C)c1 |  | inactive: -9.68%
38 | CC(C)(C)c1nnc2sc(SC/C(O)=C(\C#N)c3nc4ccccc4[nH]3)nn2c1=O | active: 20 µM | 
39 | CCS(=O)(=O)c1ccc(NC(=O)c2ccccc2Cl)c(O)c1 | inconclusive: 31.6 µM [inhibitor, single point] | 
40 | Cc1ccc(N2CC(C(=O)Nc3nnc(SCC(=O)NCC4CCCO4)s3)CC2=O)cc1C (configuration not stated) | inconclusive: 15.8 µM [inhibitor, partial curve, poor fit] | 
41 | Cc1ccc([N+](=O)[O-])cc1S(=O)(=O)Nc1cccc(-c2ccc(N3CCCC3)nn2)c1 | inconclusive: 39.8 µM [inhibitor, single point] | 
42 | Cn1nnc2cc(C(=O)NCc3ccc4c(c3)OCO4)ccc21 |  | inactive: -16.7%
43 | CCn1c(N)c(C(N)=O)sc1=S | inconclusive: 22.4 µM [inhibitor, full curve, poor fit] | 
44 | CCCOc1ccc(CNC(=O)c2ccc(C)c(-n3c(C)nc4cccnc43)c2)cc1 |  | inactive: -13.6%
45 | Cc1ccc(S(=O)(=O)N/N=C\c2ccc(C)o2)cc1 | active: 44.7 µM | 
46 | C(=C\c1ccccc1)/CSc1nnc(-c2ccncc2)n1Cc1ccco1 | inconclusive: 25.1 µM [inhibitor, single point] | 

Row | Structure (SMILES) | Potency | activity change, negative = inhibition
47 | COc1cccc(CNC(=O)c2ccc3c(=O)n4nc(Nc5ccccc5)sc4nc3c2)c1 | inconclusive: 89.1 µM [inhibitor, single point] | 
48 | CCC(C)c1ccccc1NC(=O)CN(C)CCOc1ccc(Cl)cc1 (configuration not stated) | inconclusive: 50.1 µM [inhibitor, partial curve, poor fit] | 
49 | COc1ccc(CCC(=O)NCc2nc3cccnc3n2Cc2ccc(F)cc2)cc1 |  | inactive: -6.73%
50 | CCOC(=O)c1cnc(-c2ccccc2)nc1Oc1ccc(C)cc1 | inconclusive: 12.6 µM [inhibitor, partial curve, poor fit] | 
51 | Cc1ccc(NC(=O)C(c2ccccc2)C2CCCC2)cc1 (configuration not stated) | inconclusive: 100 µM [inhibitor, partial curve, poor fit] | 
52 | CC(=O)c1ccc(S(=O)(=O)Nc2c(C)nn(C)c2C)cc1 | inconclusive: 56.2 µM [inhibitor, partial curve, poor fit] | 
53 | Cc1c(NC(=O)C(C)OC(=O)c2c3c(nc4ccccc24)CCC3)c(=O)n(-c2ccccc2)n1C (configuration not stated) | active: 50.1 µM | 
54 | CCOc1cc(CN2CCC(N3CCC(C(=O)NC4CC4)CC3)CC2)ccc1O | inconclusive: 100 µM [inhibitor, partial curve, poor fit] | 
55 | COc1ccccc1CNS(=O)(=O)c1ccc2[nH]cc(C(=O)O)c(=O)c2c1 | active: 3.16 µM | 
56 | CCn1cc(C(=O)NN)c(=O)c2cc(F)c(N3CCOCC3)cc21 | inconclusive: 20 µM [inhibitor, full curve, poor fit] | 
57 | COc1ccc(Cl)cc1NC(=O)c1ccc2c(c1)CCN2S(C)(=O)=O |  | inactive: -8.82%
58 | O=C(Nc1sccc1C(=O)NCc1ccco1)c1cccnc1 | inconclusive: 89.1 µM [inhibitor, partial curve] | 
59 | O=C(NCCc1ccccc1)C1CCN(Cc2cc3ccccc3n2Cc2cccc(Cl)c2)CC1 | inconclusive: 56.2 µM [inhibitor, partial curve, poor fit] | 
60 | CCOc1ccc(NS(=O)(=O)c2cc(NC(=O)c3cccc(C)c3)ccc2Cl)cc1 | inconclusive: 44.7 µM [inhibitor, partial curve, poor fit] | 
61 | CCOC(=O)c1sc2nc(CSc3ccccc3Cl)[nH]c(=O)c2c1C |  | inactive: -1.26%
62 | O=C(N/N=C/c1ccoc1)c1ccccc1F |  | inactive: -2.85%
63 | O=c1cc(-c2ccsc2)oc2cc(-c3ccc4c(c3)OCO4)ccc12 | inconclusive: 10 µM [inhibitor, full curve] | 
64 | O=C(Nc1c(Br)cc2c(c1Br)Cc1cc([N+](=O)[O-])ccc1-2)C(Cl)Cl | inconclusive: 31.6 µM [inhibitor, partial curve, poor fit] | 
65 | Cc1cc(C)n(CCc2nc(-c3ccc(C)o3)cs2)n1 | active: 15.8 µM | 
66 | Cc1ccc(S(=O)(=O)c2nc(S(C)(=O)=O)sc2NCc2ccccc2)cc1 |  | inactive: -0.825%
67 | O=C(OCc1nnc(-c2ccccc2)o1)c1ccc(S(=O)(=O)NCc2ccco2)cc1 | active: 22.4 µM | 
